Data on 87 compounds can be found in paper PMC4336329 (PLoS ONE, 2015).

Hit rate of the full screen: of about 310,000 compounds, about 2,200 (0.71%) showed an effect of 50% or more. The effect is printed as a negative number. The list shows a part of the results.

For this assay, the target named is human ether-à-go-go-related gene (hERG) potassium channel (human, UniProt Q12809). Put plainly: primary screen, population patch clamp on CHO cells stably expressing hERG.
Chain of human ether-à-go-go-related gene (hERG) potassium channel (Q12809 whole entry, looked up): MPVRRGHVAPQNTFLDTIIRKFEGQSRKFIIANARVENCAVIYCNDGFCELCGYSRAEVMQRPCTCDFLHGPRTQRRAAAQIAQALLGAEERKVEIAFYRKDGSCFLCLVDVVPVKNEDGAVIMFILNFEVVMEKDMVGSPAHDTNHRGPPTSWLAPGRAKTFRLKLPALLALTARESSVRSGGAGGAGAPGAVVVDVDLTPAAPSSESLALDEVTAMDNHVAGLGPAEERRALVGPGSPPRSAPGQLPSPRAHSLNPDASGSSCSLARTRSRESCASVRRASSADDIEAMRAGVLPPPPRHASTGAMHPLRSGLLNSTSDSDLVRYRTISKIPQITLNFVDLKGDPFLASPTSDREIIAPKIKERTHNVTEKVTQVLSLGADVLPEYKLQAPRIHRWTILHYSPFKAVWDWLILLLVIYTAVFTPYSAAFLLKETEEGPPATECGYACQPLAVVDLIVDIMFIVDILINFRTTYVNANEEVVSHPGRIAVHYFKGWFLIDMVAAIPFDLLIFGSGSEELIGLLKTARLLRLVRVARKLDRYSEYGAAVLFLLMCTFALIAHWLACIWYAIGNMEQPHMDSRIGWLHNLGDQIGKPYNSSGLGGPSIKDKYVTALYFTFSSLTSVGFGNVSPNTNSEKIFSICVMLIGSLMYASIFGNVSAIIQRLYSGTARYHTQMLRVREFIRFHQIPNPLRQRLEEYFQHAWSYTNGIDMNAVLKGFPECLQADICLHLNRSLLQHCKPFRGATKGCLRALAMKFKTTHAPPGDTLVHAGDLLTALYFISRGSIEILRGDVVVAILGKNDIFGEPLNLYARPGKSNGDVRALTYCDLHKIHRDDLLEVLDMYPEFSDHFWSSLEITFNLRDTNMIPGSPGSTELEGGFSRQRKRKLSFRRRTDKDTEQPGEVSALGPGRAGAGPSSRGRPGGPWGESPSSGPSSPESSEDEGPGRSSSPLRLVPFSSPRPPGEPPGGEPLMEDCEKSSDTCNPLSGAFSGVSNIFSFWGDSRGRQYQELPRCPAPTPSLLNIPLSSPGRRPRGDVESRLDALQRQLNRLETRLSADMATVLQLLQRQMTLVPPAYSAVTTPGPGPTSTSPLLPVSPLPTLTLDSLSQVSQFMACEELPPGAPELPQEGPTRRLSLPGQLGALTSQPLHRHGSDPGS
As to `COc1ccc(-c2cc(-c3ccccc3)nc(SC(C)C(=O)O)c2C#N)cc1` (stereo not drawn), the “hERG current change (%, negative = inhibition) at 1uM” value came out at 11%.
Under `O=C(Nc1ccc(OC(F)F)c(Cl)c1)c1ccccn1` stands 16%.
With `Cc1cc(C)cc(NC(=O)Cn2c(=O)oc3cc(S(=O)(=O)N4CC(C)CC(C)C4)ccc32)c1` (stereo not drawn), the “hERG current change (%, negative = inhibition) at 1uM” value was determined as 6.42%.
As for `COc1ccccc1-n1cnnc1SCC(=O)Nc1nc(C)c(Cl)cc1Cl`, the figure is 8.65%; as for `CC(C)(C)c1ccccc1OCCN1CCCC1`, -13.8%.
Under `N#CCCN(C(=O)COC(=O)C12CC3CC(CC(O)(C3)C1)C2)c1ccc(F)cc1` stands 13.4%; under `CSCCC(NC(=O)c1ccco1)C(=O)OCC(=O)Nc1ncc(Cl)c(C)c1Cl` (stereo not drawn), 1.17%.
As for `Cc1cc(NC(=O)c2ccc(F)cc2)no1`, the figure is 8.85%; as for `O=C(Nc1ccc(S(=O)(=O)Nc2cnc3ccccc3n2)cc1)c1ccc(Cl)c([N+](=O)[O-])c1`, 17.3%.
Consider `COc1cc(C=O)ccc1OCc1c(C)noc1C`, for which the “hERG current change (%, negative = inhibition) at 1uM” value was 12.3%.
As for `COc1cc(CNCCN2CCOCC2)ccc1OCc1c(Cl)cccc1Cl.Cl`, the figure is -5.61%; as for `Cc1ccc(NS(=O)(=O)c2c(C)nc3sccn3c2=O)cc1C`, -4.59%; as for `CC1CCCC(CC(=O)O)(CC(=O)O)C1` (stereo not drawn), 14.1%.
As for `CCOc1ccc(S(=O)(=O)N(CC)CC(=O)NCc2ccccn2)cc1C`, the figure is 9.07%; as for `Cc1cc([N+](=O)[O-])ccc1NC(=O)CCC(=O)N1CCCCCC1`, 1.82%.
Under `COc1cc(C(=O)NCCC(=O)NCc2ccc3c(c2)OCO3)cc(OC)c1OC` stands 11.9%; under `CCc1ccc(NCc2nc3ccccc3c(=O)[nH]2)cc1`, 8.47%; under `O=C(Nc1cccc(C(F)(F)F)c1)C12CC3CC(CC(C3)C1)C2`, 8.26%.
As to `COc1ccc(OC)c(NS(=O)(=O)c2ccc(N3CCCC3=O)cc2)c1`, the “hERG current change (%, negative = inhibition) at 1uM” value is on record as 5.31%.
Under `COc1ccc(-n2nc(C(=O)NCC(=O)N3CCCC3)c3ccccc3c2=O)cc1Cl` stands 16.7%; under `CCc1ccc(O)c(N=Cc2ccccc2O)c1`, 5.5%.
Under `CCN(CC)S(=O)(=O)c1ccc(OC)c(NC(=O)/C=C/c2ccco2)c1` stands 3.57%; under `Cc1ccccc1OCC(=O)NCC(=O)OCC(=O)c1ccc2ccccc2c1`, 0.168%; under `COCCCNc1c2c3c(cccc3[nH]c1=O)C(=O)c1ccccc1-2`, 2.86%.
As for `Cc1c(Br)c([N+](=O)[O-])nn1CC(=O)Nc1ccc(CC#N)cc1`, the figure is 13.6%; as for `CSc1ccc(CCNC(=O)C2CCN(c3nnc(-n4cccc4)s3)CC2)cc1`, 8.21%.
As to `O=C(CSc1c[nH]c2ccccc12)N1CCCc2ccccc21`, the “hERG current change (%, negative = inhibition) at 1uM” value was found to be 8.44%.
As for `O=C(Cn1nc(-c2ccccc2)c2ccccc2c1=O)Nc1ccccn1`, the figure is -1.62%; as for `CCC(=O)Nc1cccc(NC(=O)c2ccc(C)c([N+](=O)[O-])c2)c1`, -2.36%; as for `CCc1c(C)sc(NC(=S)N2CC(C)OC(C)C2)c1C(=O)OC` (stereo not drawn), 9.46%.
On to `CCCN(CCC)Cc1c(C(=O)N/N=C/CCc2ccccc2)nnn1-c1nonc1N`, for which the “hERG current change (%, negative = inhibition) at 1uM” value is -3.67%.
As for `CC(NC(=O)CCC(=O)NCc1ccc(F)cc1)c1ccccc1` (stereo not drawn), the figure is 15.1%; as for `CC(C)c1ccc(N(C)C(=O)Cc2c(C(=O)O)n(C)c3ccccc23)cc1`, 12.7%; as for `CC(C)CN(C(=O)COC(=O)c1cncc(Br)c1)c1c(N)n(Cc2ccccc2)c(=O)[nH]c1=O`, 20.7%.
In the case of `CCOc1ccc(S(=O)(=O)N2CCC(C(=O)NCc3cccnc3)CC2)cc1Cl`, the “hERG current change (%, negative = inhibition) at 1uM” value was -12.4%.
Consider `NNc1ccc2nncn2n1`, for which the “hERG current change (%, negative = inhibition) at 1uM” value turned out to be 11.5%.
Under `COC(=O)C1=C(C(=O)OC)C2C(C)=CC(C)=CN2C(C(=O)OC)=C1C(=O)OC` (stereo not drawn) stands -1.4%; under `O=C(c1cccc(Cl)c1)C1CCCN(C(=O)c2ccc3c(c2)OCO3)C1` (stereo not drawn), 3.55%; under `CC1CCCC(NS(=O)(=O)c2cccc3nsnc23)C1C` (stereo not drawn), 15.8%.
As for `CCOCCCn1c(=S)[nH]c2cc(C(=O)N3CCOCC3)ccc2c1=O`, the figure is -11.1%; as for `CCN(CC)C(=O)CSc1nnc(-c2ccco2)n1Cc1ccco1`, -3.83%; as for `CCCn1nnc(NC(=O)c2ccc(Cl)cc2Cl)n1`, 11%.
Take `O=C(c1ccc(F)cc1)c1ccc(N2CCCCC2)cc1`: the “hERG current change (%, negative = inhibition) at 1uM” value stood at 6.67%.
As for `CCCCCCCCCCCCCCCC(=O)OC/C=C(C)/C=C/C=C(C)/C=C/C1=C(C)CCCC1(C)C`, the figure is 10.2%.
On to `COc1ccc(OC)c(NC(=O)C(=O)NCCC2=CCCCC2)c1`, for which the “hERG current change (%, negative = inhibition) at 1uM” value was determined as 9.87%.
As for `Cc1ccc(SCC(=O)OC(C)C(=O)N2CCc3ccccc32)cc1` (stereo not drawn), the figure is 5.64%; as for `Cc1c2c(nc3c(C(=O)NC4CC4)cnn13)CCCC2`, 4.37%; as for `COc1cc(/C=C(/C#N)c2nc3ccccc3[nH]2)ccc1OCc1ccc(C(=O)O)o1`, 9.9%.
As for `CC(=O)N1CCN(c2ccccc2NC(=O)c2ccc3ccccc3c2)CC1`, the figure is -4.62%.
Under `O=c1cc(-c2cc3ccccc3o2)c2cc(O)ccc2o1` stands 15.2%; under `O=C(CN1C(=O)c2ccccc2C1=O)Nc1cc(C(=O)O)cc(C(=O)O)c1`, 5.36%; under `O=C(NCc1ccccn1)C1CCCN(S(=O)(=O)c2ccccc2)C1` (stereo not drawn), 15.1%.
On to `CC(C)(C)C(=O)Oc1cc(N)n(S(=O)(=O)c2ccc(F)cc2)n1`, for which the “hERG current change (%, negative = inhibition) at 1uM” value stood at 14.6%.
As to `CC(=O)n1cc([C@@H]2C=C(C(=O)N3CCN(Cc4ccccc4)CC3)O[C@H](OCc3ccc(CO)cc3)C2)c2ccccc21`, the “hERG current change (%, negative = inhibition) at 1uM” value is recorded as -0.588%.
Under `N#C/C(=N\O)c1nc(-c2ccccc2)cs1` stands 12.4%; under `O=C(c1ncc[nH]1)c1ccco1`, 11.8%; under `COc1cccc(N2CCN(C(=O)Nc3ccc4c(c3)NC(=O)CO4)CC2)c1`, -12%.
Under `O=c1[nH][nH]c(C(F)(F)F)c1/C=N/N1CCOCC1` stands 18.2%; under `COc1ccc(C(N)=O)cc1NC(=O)CC(O)(C(F)(F)F)C(F)(F)F`, 15.2%.
Under `COc1ccc(NC(=O)N2Cc3ccccc3CC2C(=O)NC(C)(C)C)cc1` (stereo not drawn) stands 2.06%; under `COc1ccccc1NC(=O)CSc1nnc(CC(=O)Nc2ccccc2C)n1C`, 11.7%; under `CCOC(CNC(=O)C(=O)NCC(c1ccco1)N1CCN(c2ccc(OC)cc2)CC1)OCC` (stereo not drawn), 7.37%.
On to `CCn1ncc([N+](=O)[O-])c1C(=O)N1CCCC1`, for which the “hERG current change (%, negative = inhibition) at 1uM” value was 15.9%.
Under `O=c1c(Cl)c(NCCCO)cnn1-c1nc2ccccc2[nH]1` stands 0.238%; under `CCN(CC)C(=O)Oc1cc(COC)nc(-c2ccccc2)n1`, 6.59%; under `CC(CCc1ccccc1)NC(=O)C1CCCN(C(=O)c2cc3sccc3n2C)C1` (stereo not drawn), 3.71%.
As for `COC(=O)c1ccc(NC(=O)CSc2nnc(-c3ccncc3)n2N)cc1`, the figure is 2.59%.
With `COc1ccc(NC(=O)C2CCCN2S(=O)(=O)c2cccc3cccnc23)c(OC)c1` (stereo not drawn), the “hERG current change (%, negative = inhibition) at 1uM” value came to 10.9%.
As for `CCOC(=O)c1ccc2c(c1)C(=O)N(C1CCCCC1)C2=O`, the figure is 9.59%; as for `CCOC(=O)N1CCN(C(=O)c2cc(OC)cc(OC)c2)CC1`, 5.19%; as for `COCCn1c(C)cc(C(=O)COC(=O)/C=C/c2c(C)nn(C3CCS(=O)(=O)C3)c2Cl)c1C` (stereo not drawn), 0.17%.
Under `COc1cccc2cc(C(C)N(CCCN3CCOCC3)C(=O)Nc3ccccc3)oc12` (stereo not drawn) stands 5.29%; under `CCOC(=O)c1cn(CC)c2cc(N3CCN(C)CC3)c(F)cc2c1=O`, 12.6%.
Under `Cc1cc(C(=O)Nc2ccc3ccccc3c2)c(C)o1` stands 7.59%; under `COC(=O)c1ccc(N(C(=O)CNC(=O)c2ccco2)C(C(=O)NCC2CCCO2)c2ccc(OC)c(OC)c2)cc1` (stereo not drawn), 13.3%.
With `O=C(NCc1ccccn1)c1cc(-c2ccccc2Cl)nc2ccccc12`, the “hERG current change (%, negative = inhibition) at 1uM” value was 6.9%.
Under `O=C(c1sccc1-c1ccccc1)N1CCN(S(=O)(=O)c2ccccc2F)CC1` stands -15.4%; under `Nc1cc(=O)[nH]c(=O)n1-c1ccc(Cl)cc1`, 19.2%.
As for `Cc1cc(OC(C)C(=O)NCc2ccncc2)c2c3c(c(=O)oc2c1)CCC3` (stereo not drawn), the figure is 10.5%; as for `Cc1cc(C(=O)Nc2ccc(Cl)cc2)c(C)n1-c1ccccc1`, 9.67%; as for `COc1cc2ccccc2cc1C(=O)N(CCN(C)C)c1nc2c(OC)ccc(OC)c2s1.Cl`, 14%.
As for `CCC(CC)C(=O)c1c[nH]c(C(=O)NCc2ccccc2OC)c1`, the figure is 10%; as for `CCOC(=O)N1CCN(c2c(NCC3CCN(Cc4cccc(C)c4)CC3)c(=O)c2=O)CC1`, 6.52%; as for `CC(C)c1ccc(NC(=O)C(c2ccccc2)N2CC(=O)Nc3ccccc32)cc1` (stereo not drawn), 13%.
In the case of `O=S(=O)(Nc1ccncc1Cl)c1cccc(Cl)c1Cl`, the “hERG current change (%, negative = inhibition) at 1uM” value is 15.2%.
Under `CC(C)=CCN1CCN(Cc2cnc(N3CCCC3)s2)CC1CCO` (stereo not drawn) stands 16.5%; under `Cc1c(NC(=O)COC(=O)CSc2ccc([N+](=O)[O-])cc2)c(=O)n(-c2ccccc2)n1C`, 13.1%.
